± gives the standard deviation of the averaged measurements. Some of the results follow.
Each sequence was assayed on PfAP2-LT AP2 domain (GST-tagged) (assay: gcPBM binding intensity (ln(normalized median fluorescence intensity)); higher = stronger DNA binding).
Procedure, shortened: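 Using an Agilent 4 × 180k array, primer-extended double-stranded 36-bp intergenic genomic probes and negative controls were exposed for 1 h to GST-fused P. falciparum DNA-binding domains expressed in E. coli. Binding was carried out in 1× PBS with 1% milk, 0.2 mg/ml BSA, 0.5% salmon testes DNA and 0.03% Triton X-100, and protein was detected with Alexa488 anti-GST antibody and a 488 nm scan. Binding intensity is the highest Masliner-normalised natural-log median intensity across replicate spots of either probe orientation.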

| Sequence | gcPBM binding intensity (ln) |
| --- | --- |
| ATATATATATTTGTATGTACATATATATATTCGTAT [XGTACX_site1640] | 9.06 ± 0.38 |
| ACCCATAAAAAGGATACACACACACCCACCCATATA [CACACA_site8205] | 10.3 ± 0.29 |
| TTTCCTTATTAAAACACACAAATACATTATTTAATC [CACACA_site7080] | 8.6 ± 0.52 |
| ACTGTAAAAGGATTTACACACATATTTACATTTACA [CACACA_site519] | 9.06 ± 0.35 |
| ATGCATATAACTACGTGTACAAATATACACAAATAC [XGTACX_site8811] | 9.18 ± 0.42 |
| TACCAATGCATAACGGTGCAAAAAAATAAGGAATAA | 8.91 ± 0.61 |
| TAAAACAACAAAGAAAATGAAAAAGTAAAAACATAT [CACACA_negctrl_site1049] | 8.9 ± 0.55 |
| ATTTCATAAATTAAACGTACATAATACACACACATG [XGTACX_site4155] | 9.49 ± 0.33 |
| GTACGATAAAAAATTGGACAAAAAAAAAAAAAAAAT [XGTACX_negctrl_site158] | 8.79 ± 0.53 |
| TTTTGTTATTTTTTAGTGCATATAAAGGTTGTTAAG | 8.45 ± 0.4 |
| TTTTGCAATAATGTTGCACACTAAATAGTCATCTAT [CACACA_site4304] | 8.91 ± 0.32 |
| ACATTTTTTTCATATCGTACATATTATAATATTTTC [XGTACX_site6524] | 8.94 ± 0.4 |
| ACAAGTCAGGCAAAAACATGCATTATTTGAACATTA [TGCATGCA_site864] | 8.9 ± 0.46 |
| AAAAAAAAAAAAGGAGGTACACAATTTTATATATGC [XGTACX_site5296] | 8.66 ± 0.49 |
| GAGCATTACCCATATACACACATATATATAAACCTA [CACACA_site2737] | 9.18 ± 0.37 |
| CTATCATATTTATGCACACAAAAATAATTAATTCGT [CACACA_site2614] | 8.96 ± 0.36 |
| TATTTTGAGAATAAATGTACGAATTTTATATTTAAA [XGTACX_site1336] | 8.07 ± 0.42 |
| ACCTGTTCATATGATCGTACACGTCAGTTTATATGA [XGTACX_site3869] | 9.15 ± 0.37 |
| ATATAATTATTGATATGTACATATTTGTTCTAGTTT [XGTACX_site3012] | 9.01 ± 0.45 |

| Sequence | gcPBM binding intensity (ln) |
| --- | --- |
| ATTCAAATATTAAAAAGTACAAAAAAAAAACAAAAA [XGTACX_site1174] | 8.63 ± 0.5 |
| ACATTAAAATATGATTGTACATTTTATTATATTATA [XGTACX_site912] | 8.68 ± 0.41 |
| ACAACACTATATTACACATGCATTAAGAGAGTGAAC [TGCATGCA_site124] | 9.12 ± 0.36 |
| ATAATTATTTTAGAAACACACAAATTAGAAAAAACA [CACACA_site3636] | 8.67 ± 0.55 |
| TAAAATAAAAATTAAAGTACATATGTATATATATAT [XGTACX_site3984] | 9.11 ± 0.35 |
| AATCCTTACGGACACACACACACGAATAAATAAAAA [CACACA_site4422] | 9.68 ± 0.43 |
| GAGTATTCAAGTATTAGTACATATTATATAATAAAT [XGTACX_site7630] | 8.72 ± 0.49 |
| TACAAAATGGGGAACACACACATATATAAATAAATA [CACACA_site7751] | 9.6 ± 0.63 |
| TTTTTTTCTAATTATGCACACATATCAAAATATTCA [CACACA_site8886] | 8.84 ± 0.38 |
| ATATTTATTATATAATGTACAAAAAAAAAAAAAAAA [XGTACX_site629] | 8.44 ± 0.32 |
| AATAAATAGATATATACACACATATATCTATAATAT [CACACA_site6557] | 9.02 ± 0.3 |
| AAATATAAAAGTATATGTACATATATATATATATAT [XGTACX_site7446] | 9.85 ± 0.3 |
| TATATAATGGTAAAAACACACAAATATGAAGATGTT [CACACA_site722] | 9.05 ± 0.4 |
| CGTGTGTCCCCCTTAATCATCCAATCGTTCATTTTG [CACACA_negctrl_site1008] | 9.09 ± 0.28 |
| AGAGGATCATAGTTATGTACACATATTTAACATAAA [XGTACX_site7232] | 8.71 ± 0.45 |
| GACAATAAAAAGAAAAGTACATATATAAATTAACCA [XGTACX_site7858] | 8.83 ± 0.48 |
| TCTTCATTTTTATGTGCATGTAAAATTTTTTTTTTT [TGCATGCA_site963] | 8.71 ± 0.49 |
| TTTTTATAAAAATTATTAAAAAAATTATTTATAGCT [CACACA_negctrl_site265] | 8.07 ± 0.45 |
| TTTTTTTTCAATCTCTATATATTAAGGTTTATATTT [XGTACX_negctrl_site397] | 8.46 ± 0.49 |

| Sequence | gcPBM binding intensity (ln) |
| --- | --- |
| TAGCGCATAAAAAAAAAAAAATATATACTAATAAAT [GTGCAC_negctrl_site276] | 8.54 ± 0.54 |
| AAATATATTATTATCTTATCAATTAAAAGAATAAAC [CACACA_negctrl_site779] | 8.38 ± 0.43 |
| TTACTTAAATATAAGTGTCCTCAAAAAAAAAAAAAA [XGTACX_site460] | 8.2 ± 0.45 |
| AATATAAGTTTATTAGTGCACAGATAAATATATATT [GTGCAC_site9784] | 8.86 ± 0.42 |
| ATGTATGTTTTTTTTTTATTGTTCAAAAAGTTGAAG [CACACA_negctrl_site1276] | 8.52 ± 0.37 |
| ATTTTTTATATTAATTGTACATTGTATATATATATA [XGTACX_site8702] | 8.8 ± 0.35 |
| TTATATATATGTGTATGTACATATATATATATATAT [XGTACX_site1141] | 9.52 ± 0.22 |
| AAAAGAATAATAATTTATGTATATTAATTAAAGAAT [XGTACX_negctrl_site402] | 8.52 ± 0.53 |
| TATCATATATTATATGCACACATGTTTTTCAAGAAT [CACACA_site1892] | 8.95 ± 0.31 |
| TATATAATATTCTACACACCAACAACAAACATATAT [CACACA_site567] | 9.26 ± 0.33 |
| ATATTCTGATTTTAGATGCACTTCGTTAACAAAATA [GTGCAC_site9958] | 8.49 ± 0.35 |
| ATATATATATTTATATGTACATAATATAAAATTTCT [XGTACX_site3720] | 8.62 ± 0.45 |
| AATGAATATATATAAATATATATATATATATATATA [CACACA_negctrl_site1494] | 9.39 ± 0.17 |
| ATAAATCTACACCGCACACAAAAACAACAAATATTA [CACACA_site5396] | 9.34 ± 0.4 |
| ATGTTATTACATAATTGTACATTTTGAGCAATTAAG [XGTACX_site4640] | 8.52 ± 0.35 |
| ATATTTGTATAAATTGCACACTTTATTTTTTTTAAG [CACACA_site1558] | 8.79 ± 0.48 |
| AAACGTAACATATATATATATATATATAAGATATAT [CACACA_negctrl_site126] | 9.63 ± 0.2 |
| TTAGCTTTTTTTTAAACATGCAACTACTTGATCCAC [TGCATGCA_site1017] | 8.6 ± 0.55 |

Reference: the supplement of paper PMC11417369
